Laboratory results as given in the supplement of paper PMC4967469.
The IC50 comes from the fitted curve, where viability falls to half of the control; fits outside the tested doses are given as limits. The AUC spans the tested range (256-fold, ending at the top dose) of the same fit; values near 1 show little effect. Where the top dose is marked as inferred, it was derived from the fitted curves, not read from the paper.

Columns and labels:
Experiment in all cases: Viability of human cancer cell lines after 72 h of drug (GDSC screen)
GW-2580 = compound: COc1ccc(COc2ccc(Cc3cnc(N)nc3N)cc2OC)cc1 [GW-2580]; conditions: top dose 20 µM; top dose inferred
Experimental: (§1)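 Human cancer cell lines in 384-well plates, medium with 10% serum, drug for 72 h over a 256-fold dose range (nine 2-fold or five 4-fold steps up to the top dose). Adherent lines were fixed and stained with the nucleic acid dye Syto60, suspension lines read with resazurin; signal relative to control wells, capped at 0 and 100%. One two-parameter sigmoid per drug and line, fitted in a mixed model over all curves with the slope shared within a line.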

Bryostatin 1 = compound: CCC/C=C/C=C/C(=O)O[C@H]1/C(=C/C(=O)OC)C[C@H]2C[C@H]([C@@H](C)O)OC(=O)C[C@H](O)C[C@@H]3C[C@H](OC(C)=O)C(C)(C)[C@](O)(C[C@@H]4C/C(=C/C(=O)OC)C[C@H](/C=C/C(C)(C)[C@]1(O)O2)O4)O3 [Bryostatin 1]; conditions: top dose 0.008 µM; top dose inferred
Experimental: as §1

SGC0946 = compound: CC(C)N(CCCNC(=O)Nc1ccc(C(C)(C)C)cc1)C[C@H]1O[C@@H](n2cc(Br)c3c(N)ncnc32)[C@H](O)[C@@H]1O [SGC0946]; conditions: top dose 0.5 µM; top dose inferred
Experimental: as §1

Lenalidomide = compound: Nc1cccc2c1CN(C1CCC(=O)NC1=O)C2=O [Lenalidomide]; conditions: top dose 5 µM; top dose inferred
Experimental: as §1

Cell Line | AUC (GW-2580) | IC50 (GW-2580) [µM] | AUC (Bryostatin 1) | IC50 (Bryostatin 1) [nM] | AUC (SGC0946) | IC50 (SGC0946) [nM] | AUC (Lenalidomide) | IC50 (Lenalidomide) [µM]
IA-LM (large cell lung carcinoma, adherent) | 0.978 | > 20 | 0.978 | > 8 | 0.983 | > 500 | 0.981 | > 5
IGR-37 (melanoma, adherent) | 0.988 | > 20 | 0.923 | > 8 | 0.988 | > 500 | 0.983 | > 5
IHH-4 (thyroid, semi-adherent) | 0.981 | > 20 | 0.988 | > 8 | 0.972 | > 500 | 0.983 | > 5
IMR-5 (neuroblastoma, adherent) | 0.986 | > 20 | 0.986 | > 8 | 0.991 | > 500 | 0.962 | > 5
IPC-298 (melanoma, adherent) | 0.984 | > 20 | 0.965 | > 8 | 0.97 | > 500 | 0.986 | > 5
IST-MEL1 (melanoma, adherent) | 0.979 | > 20 | 0.977 | > 8 | 0.978 | > 500 | 0.97 | > 5
JEG-3 (urogenital system, adherent) | 0.989 | > 20 | 0.946 | > 8 | 0.99 | > 500 | 0.964 | > 5
JHH-1 (liver, adherent) | 0.985 | > 20 | 0.982 | > 8 | 0.982 | > 500 | 0.955 | > 5
JHH-2 (liver, adherent) | 0.985 | > 20 | 0.986 | > 8 | 0.967 | > 500 | 0.982 | > 5
JHH-4 (liver, adherent) | 0.96 | > 20 | 0.985 | > 8 | 0.986 | > 500 | 0.984 | > 5
JHH-6 (liver, adherent) | 0.963 | > 20 | 0.987 | > 8 | 0.984 | > 500 | 0.983 | > 5
JHH-7 (liver, adherent) | 0.984 | > 20 | 0.984 | > 8 | 0.988 | > 500 | 0.989 | > 5
JHU-022 (head and neck, adherent) | 0.982 | > 20 | 0.972 | > 8 | 0.976 | > 500 | 0.946 | > 5
JIMT-1 (breast, adherent) | 0.98 | > 20 | 0.945 | > 8 | 0.983 | > 500 | 0.974 | > 5
JURL-MK1 (chronic myeloid leukaemia, suspension) | 0.987 | > 20 | 0.969 | > 8 | 0.985 | > 500 | 0.953 | > 5
JVM-2 (lymphoid neoplasm, suspension) | 0.982 | > 20 | 0.975 | > 8 | 0.975 | > 500 | 0.953 | > 5
JVM-3 (lymphoid neoplasm, suspension) | 0.986 | > 20 | 0.987 | > 8 | 0.976 | > 500 | 0.978 | > 5
JiyoyeP-2003 (Burkitt lymphoma, suspension) | 0.991 | > 20 | 0.991 | > 8 | 0.989 | > 500 | 0.989 | > 5
K2 (melanoma, adherent) | 0.971 | > 20 | 0.977 | > 8 | 0.975 | > 500 | 0.972 | > 5
KARPAS-45 (lymphoblastic leukaemia, suspension) | 0.989 | > 20 | 0.939 | > 8 | 0.991 | > 500 | 0.987 | > 5
KARPAS-231 (B-cell leukaemia, suspension) | 0.98 | > 20 | 0.944 | > 8 | 0.988 | > 500 | 0.98 | > 5
KARPAS-299 (anaplastic large cell lymphoma, suspension) | 0.988 | > 20 | 0.992 | > 8 | 0.986 | > 500 | 0.978 | > 5
KARPAS-620 (haematopoietic neoplasm, suspension) | 0.991 | > 20 | 0.981 | > 8 | 0.986 | > 500 | 0.99 | > 5
KE-37 (lymphoblastic leukaemia, suspension) | 0.994 | > 20 | 0.987 | > 8 | 0.994 | > 500 | 0.991 | > 5
KM-H2 (Hodgkin lymphoma, suspension) | 0.993 | > 20 | 0.993 | > 8 | 0.992 | > 500 | 0.986 | > 5
KMH-2 (thyroid, adherent) | 0.971 | > 20 | 0.919 | > 8 | 0.989 | > 500 | 0.99 | > 5
KMOE-2 (acute myeloid leukaemia, suspension) | 0.983 | > 20 | 0.988 | > 8 | 0.989 | > 500 | 0.968 | > 5
KMRC-20 (kidney, adherent) | 0.986 | > 20 | 0.98 | > 8 | 0.988 | > 500 | 0.985 | > 5
KON (head and neck, adherent) | 0.987 | > 20 | 0.904 | > 8 | 0.985 | > 500 | 0.987 | > 5
KP-2 (pancreas, adherent) | 0.979 | > 20 | 0.981 | > 8 | 0.985 | > 500 | 0.986 | > 5
